# According to PubChem BioAssay AID504832 (National Center for Advancing Translational Sciences (NCATS), 2011):
# The campaign covered roughly 310,000 compounds. About 18,000 (5.8%) were called active. The inconclusive results got no clear call from the source; some entries with a clear call stand among them for comparison. The call rests on the fitted dose curve; in most records, active means well fitted inhibition curve with a large enough effect; inconclusive means small, poorly fitted or top-dose-only effect, or another doubt; inactive means no such curve, though single readings can be large or run the other way. No potency is given beside an inconclusive call; the fits are too rough.
# Assay: Primary qHTS for delayed death inhibitors of the malarial parasite plastid, 48 hour incubation
# Conditions: P. falciparum luciferase growth in erythrocytes; series mostly up to 28.7 µM; activity change, negative = inhibition: at the top concentration
# In short: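 In quantitative HTS format, infected erythrocytes bearing luciferase-reporter parasites were treated for a single generation at 37 C. Luminescence after adding detection reagent served as the growth measure.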
# On the % scale 0 is the no-effect control and ±100 the full control effect; potency means the concentration at half of the fitted maximal effect; tags describe the fitted curve by direction and shape.
SMILES,"activity change, negative = inhibition",Potency
COC(=O)[C@H](CC(C)C)NC(=O)Nc1ccc(F)cc1,inactive: 15%,
CC1(c2ccc(OC(F)F)cc2)NC(=O)N(CC(=O)NCCC2=CCCCC2)C1=O (configuration not stated),,"inconclusive [inhibitor, single point]"
CCn1nc2cc(C(=O)NCc3cc(C(F)(F)F)cc(C(F)(F)F)c3)ccc2c1OC,inactive: 38.9%,
N#CC1=C(N)N2C(=C(C#N)C13CCN(Cc1ccccc1)CC3)Nc1ccccc12,,"inconclusive [inhibitor, partial curve]"
Cc1cc(C(=O)N2CCCC(N3CCN(c4cccc(C(F)(F)F)c4)CC3)C2)no1 (configuration not stated),,"inconclusive [inhibitor, single point]"
O=C(c1ccccc1[N+](=O)[O-])n1cnc2ccccc21,inactive: 6.51%,
COc1ccc(-n2ccnc2SCC(=O)NO)cc1,,active: 1.31 µM
O=C(c1ccc(=O)[nH]c1)N1CCN(S(=O)(=O)c2cc(C(F)(F)F)ccc2Cl)CC1,,"inconclusive [inhibitor, full curve, poor fit]"
C/C(=N\NC(=O)c1c[nH]c2ccccc12)c1ccc2c(c1)OCO2,,"inconclusive [inhibitor, full curve, poor fit]"
O=C(/C=C/c1cccnc1)c1ccccc1O,inactive: -2.08%,
CCCn1c(CC)nc([N+](=O)[O-])c1Sc1ccc(F)cc1,,"inconclusive [inhibitor, partial curve, poor fit]"
COc1ccc(-n2nc(C(=O)NCC(=O)NCc3ccccc3OC)c3ccccc3c2=O)c(OC)c1,,"inconclusive [inhibitor, partial curve, poor fit]"
CC(C)Oc1ccc(OCCNC2CCCC2)cc1,inactive: 17.5%,
Cc1ccccc1NS(=O)(=O)c1ccc(C(=O)N2CCCC(C(F)(F)F)C2)cc1 (configuration not stated),,"inconclusive [inhibitor, single point]"
CCCCn1nc2cc(C(=O)NCC34CC5CC(CC(C5)C3)C4)ccc2c1OCC,,"inconclusive [inhibitor, single point]"
CSCC[C@H](NC(=O)C(C)(C)Oc1ccc(Cl)cc1)c1nc2ccccc2[nH]1,,"inconclusive [inhibitor, single point]"
O=C1C(Cc2ccc(Br)cc2)SC(=Nc2ccccc2)N1c1ccccc1 (configuration not stated),,active: 13.1 µM
CCCCNC(=O)C(c1ccc(-c2ccccc2)cc1)N(CCN1CCOCC1)C(=O)CCCCCN1C(=O)NC(c2ccc([N+](=O)[O-])cc2)C(C(=O)OCc2ccccc2)=C1C (configuration not stated),,active: 1.31 µM
O=C(CCN1CCN(c2ccccc2)CC1)N/N=C/c1ccc([N+](=O)[O-])o1,,"inconclusive [inhibitor, partial curve]"
CS(=O)(=O)c1ccc(-c2nnc(NC(=O)c3ccc(S(=O)(=O)N4CCCC4)cc3)o2)cc1,,active: 13.1 µM
Cc1ccc(-n2c(=O)c3sccc3n(CC(=O)NC3CCCCC3)c2=O)cc1,inactive: -9.24%,
Cn1nc(C(=O)N2CCOCC2)c([N+](=O)[O-])c1C(=O)N1CCOCC1,inactive: 7.96%,
c1ccc(Cn2c(CSc3nnnn3-c3ccccc3)nc3ccccc32)cc1,,"inconclusive [inhibitor, partial curve]"
COc1ccccc1NC(=O)C(C)OC(=O)CCSc1ccc(F)cc1 (configuration not stated),inactive: -14.5%,

SMILES,"activity change, negative = inhibition",Potency
CC(=O)c1cccc(S(=O)(=O)NC2CCSc3ccccc32)c1 (configuration not stated),,"inconclusive [inhibitor, single point]"
Cc1cc(-n2c(C)cc(C(=O)CN3C(=O)NC4(CCCC4)C3=O)c2C)no1,,"inconclusive [inhibitor, single point]"
O=C(CSc1nnc(-c2ccccn2)n1Cc1ccco1)c1ccccc1,inactive: -0.783%,
COc1ccc(C(=O)N/N=C/c2ccc(OC)c(CN3CCc4cc(OC)c(OC)cc4C3C)c2)cc1 (configuration not stated),,active: 9.28 µM
O=[N+]([O-])c1ccc(Nc2ccc(F)cc2)nc1,inactive: 39.7%,
C#Cc1cccc(Nc2ncnc3cc(OCCOC)c(OCCOC)cc23)c1,,active: 13.5 µM
Cc1ccccc1NC(=O)NCC1CCN(Cc2cccc(Cl)c2)CC1,,"inconclusive [inhibitor, single point]"
Cc1c2ccccc2cc(Cc2ccccc2)[n+]1C,,"inconclusive [inhibitor, full curve]"
C=CCn1c(SCCC)nc2sc3c(c2c1=O)CCc1ccccc1-3,,"inconclusive [inhibitor, single point]"
COc1ccc(Cl)cc1NC(=O)Nc1ccccc1C(N)=O,inactive: -6.19%,
O=C(Nc1cccc(C(=O)N2CCCCC2)c1)c1ccc(Cl)cc1,inactive: -2.47%,
CC(C)C(NC(=O)CC12CC3CC(CC(C3)C1)C2)C(=O)O (configuration not stated),,"inconclusive [inhibitor, full curve, poor fit]"
COc1cc(C(=O)Nc2c(C)cc(C)cc2C)c([N+](=O)[O-])cc1OC,,"inconclusive [inhibitor, single point]"
COc1ccc(CNC(=O)Cn2ncn3cccc3c2=O)cc1,inactive: 252%,
CCN(CC)S(=O)(=O)c1ccc(C)c(NC(=O)CNCc2ccccc2OC)c1,,"inconclusive [inhibitor, partial curve, poor fit]"
O=C1OCC/C1=C\c1ccc2c(c1)OCO2,,"inconclusive [inhibitor, single point]"
CCOCCCNC(=O)c1c[nH]c2ccc(OCC)cc2c1=O,,active: 2.33 µM
COc1ccc(NC(=O)Nc2cccs2)cn1,inactive: 11.8%,
Cc1cc2nnn(-c3nnc(-c4ccccc4)c4ccccc34)c2cc1C,,"inconclusive [inhibitor, single point]"
CCOC(=O)c1c(C)sc(Sc2ccc(Cl)cc2[N+](=O)[O-])c1OC,,active: 3.7 µM
CCCCOc1ccc(/C=C/C(=O)NC2=Nc3ccccc3NC(C)=C2C(=O)OCC)cc1OC,,"inconclusive [inhibitor, partial curve]"
Cc1cccc(N2CCN(C(=O)c3ccc(NC(=O)C4CCCO4)cc3)CC2C)c1 (configuration not stated),,"inconclusive [inhibitor, single point]"
NC(=O)c1nsc(C(=O)N(c2ccc3c(c2)OCCO3)C(C(=O)NCC2CCCO2)c2ccc(F)cc2)c1N (configuration not stated),,"inconclusive [inhibitor, partial curve]"
O=C(CSc1nnc2c(n1)[nH]c1ccc(F)cc12)N1CCOCC1,inactive: 2.89%,

SMILES,"activity change, negative = inhibition",Potency
COc1ccc(N(CC(O)Cn2cnc3ccccc32)S(=O)(=O)c2ccc(C)cc2)cc1 (configuration not stated),,"inconclusive [inhibitor, partial curve, poor fit]"
CCOC(=O)C1CCCN(CCSc2ccc(C)cc2)C1 (configuration not stated),inactive: 32.6%,
COc1ccc(-c2csc(-n3ncc(-c4ccccn4)c3N)n2)cc1,,"inconclusive [inhibitor, single point]"
N#CCOC(=O)C1c2ccccc2Oc2ccccc21,,"inconclusive [inhibitor, partial curve, poor fit]"
Cc1nn(-c2ccccc2)c(N2CCCC2)c1/C=N/NC(=O)c1cc(-c2ccccn2)nc2ccccc12,,"inconclusive [inhibitor, partial curve]"
Cc1nn(-c2ccccc2)c(C)c1C(=O)OCC(=O)N(C)c1c(N)n(Cc2ccccc2)c(=O)[nH]c1=O,,"inconclusive [inhibitor, partial curve, poor fit]"
C=CCn1c(SCC(=O)N2CC(=O)Nc3ccccc32)nc2scc(-c3cccs3)c2c1=O,,"inconclusive [inhibitor, partial curve]"
Cc1cccc(N(CC(=O)NCCSCc2ccco2)S(=O)(=O)c2ccccc2)c1,,"inconclusive [inhibitor, single point]"
Cc1cc(Cl)c(C)c(S(=O)(=O)N2CCN(C(=O)C3CCCO3)CC2)c1Cl (configuration not stated),,"inconclusive [inhibitor, partial curve]"
CCOC(=O)c1ccc(N2C(=O)c3n[nH]c(C)c3C2c2ccc(OC)cc2OC)cc1 (configuration not stated),,"inconclusive [inhibitor, single point]"
CCOC(=O)C1=C(N)Oc2cc(O)ccc2C1c1ccc([N+](=O)[O-])cc1 (configuration not stated),,active: 9.28 µM
Cc1cccc(N/N=C(\C(N)=O)C2=NC(C)(C)Cc3ccccc32)c1,,active: 5.86 µM
CCN(CC)CC(=O)Nc1c(C)cc(C(C)(C)C)cc1C,inactive: -5.63%,
CCOC(=O)c1ccc(NC(=O)CCNS(=O)(=O)c2ccc3c(c2)oc(=O)n3C)cc1,inactive: -13.6%,
O=C(/C=C/c1ccc(F)cc1)NC(Cc1c[nH]c2ccccc12)C(=O)O (configuration not stated),inactive: -2.07%,
COc1ccc(N2CCN(Cc3nc(-c4ccccc4)no3)CC2)cc1,inactive: 0.0218%,
CN(CCO)C(=O)c1c(NC(=O)c2ccccc2)sc2c1CCCC2,,"inconclusive [inhibitor, full curve, poor fit]"
CC1Cc2ccccc2N1C(=O)CSc1nnnn1-c1ccc2c(c1)OCCO2 (configuration not stated),,"inconclusive [inhibitor, full curve]"
O=C1CSC(c2cn(-c3ccccc3)nc2-c2ccc3c(c2)OCCO3)N1CCN1CCOCC1 (configuration not stated),,active: 8.28 µM
Cc1ccc(NC(=O)C(NC2CCCc3ccccc32)c2ccccc2)c([N+](=O)[O-])c1 (configuration not stated),,active: 13.1 µM
Cc1csc2c(N3CCN(C(=O)Nc4ccccc4)CC3)ncnc12,inactive: -3.27%,
Cc1cc(C)cc(N2C(=O)CC(N3CCOCC3)C2=O)c1 (configuration not stated),inactive: 17.3%,
O=c1[nH]nc(-c2ccc(OCc3ccc(Cl)cc3Cl)cc2)o1,inactive: -2.97%,
Cc1ccccc1-c1cccc([C@@H]2C[C@H]3CN(Cc4cccnc4)C(=O)[C@]34CCCN24)c1,,"inconclusive [inhibitor, partial curve]"
